Reference: PubChem BioAssay AID2675 (National Center for Advancing Translational Sciences (NCATS), 2010)
About 100 (0.036%) of roughly 280,000 compounds were called active. The inconclusive results got no clear call from the source; some entries with a clear call stand among them for comparison. Calls come from the whole dose curve; as a rule, active = well fitted inhibition curve with a large enough effect in the signal ratio, with a control signal flat (not every such curve was filed as active); inconclusive = small, poorly fitted or top-dose-only effect, or effect the other way, or a change in a side signal; inactive = no such curve, though single readings can be large or run the other way; the % refers to the signal ratio. Potencies of inconclusive entries are doubtful fits and often do not repeat. “Side channel” marks fits to a control or component signal instead of the main read-out.

target: Muscleblind-like protein 1 (Homo sapiens) (UniProt Q9NR56); assay: qHTS Assay for Inhibitors of MBNL1-poly(CUG) RNA binding; conditions: TR-FRET MBNL1-His/biotin-(CUG)12 binding, 665/545 ratio; series mostly up to 57.5 µM
UniProt Q9NR56, sequence (Q9NR56 whole entry, looked up): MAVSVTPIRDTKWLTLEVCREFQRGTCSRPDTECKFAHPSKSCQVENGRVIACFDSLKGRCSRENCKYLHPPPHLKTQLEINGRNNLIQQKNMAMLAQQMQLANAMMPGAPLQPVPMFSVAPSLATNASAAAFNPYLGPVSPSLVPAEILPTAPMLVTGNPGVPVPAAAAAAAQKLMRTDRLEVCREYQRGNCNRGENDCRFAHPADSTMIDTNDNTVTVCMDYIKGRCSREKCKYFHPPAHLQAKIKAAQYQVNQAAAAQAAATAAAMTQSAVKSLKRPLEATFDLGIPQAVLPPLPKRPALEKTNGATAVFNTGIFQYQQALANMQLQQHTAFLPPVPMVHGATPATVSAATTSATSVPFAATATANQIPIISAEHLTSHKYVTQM
Method in brief: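 Compounds (final 92 nM to 58 uM) are added to His-tagged MBNL1 and biotin-(CUG)12, then terbium anti-His antibody and streptavidin-XL665 (5 nM final). After 60 min at room temperature, the 665/545 nm ratio is read.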
Potency is the fitted concentration of half-maximal effect; tags give direction and shape of the fitted curve or compound fluorescence and quenching.

SMILES | Potency
CCC1(C)Cc2ccccc2-c2[nH]c(=S)[nH]c(=O)c21 (configuration not stated) | inconclusive: 17.8 µM [fluorescent, side channel, partial curve]
CC(=O)C1C(=O)C=C(c2ccco2)CC1c1ccccc1 (configuration not stated) | inconclusive: 22.4 µM [quencher, side channel, partial curve]
CCOC(=O)N1CCN(c2ccc(F)cc2[N+](=O)[O-])CC1 | inconclusive: 22.4 µM [quencher, side channel, partial curve]
COCCCN(C(=O)c1ccco1)c1nc(-c2ccc(OC)cc2)cs1 | inactive
Cc1ccc(NC(=O)C(=O)NCc2ccc(/C=C(/C#N)C(=O)NCc3cccnc3)o2)cc1 | inconclusive: 3.16 µM [quencher, side channel, full curve]
O=C(c1ccc([N+](=O)[O-])cc1[N+](=O)[O-])N1CCCC1 | inconclusive: 8.91 µM [quencher, side channel, partial curve]
COC(=O)C1CCCCN1C(=O)c1ccc2oc(C(C)C)nc2c1 (configuration not stated) | inactive
Cc1cc(C)c(S(=O)(=O)NCCn2ccc3ccccc32)c(C)c1 | inactive
Cn1c(O)c(N=Nc2ccccc2)c2ccccc21 | inconclusive: 22.4 µM [quencher, side channel, single point]
COc1ccc(-c2cnn3c(N)c(S(=O)(=O)C(C)(C)C)cnc23)cc1 | inactive
Cc1ccc(-n2cnc3scc(-c4cccs4)c3c2=O)cc1 | inconclusive: 39.8 µM [inhibitor, single point]
O=C(Nc1cccc([N+](=O)[O-])c1)c1cc(S(=O)(=O)N2CCOCC2)cs1 | inconclusive: 2.24 µM [quencher, side channel, full curve, poor fit]
O=C(/C=C/NNC(=O)c1ccccc1)c1ccc([N+](=O)[O-])cc1 | inconclusive: 17.8 µM [quencher, side channel, partial curve]
c1ccc(OCCN2CCN(C(c3ccccc3)c3ccccc3)CC2)cc1 | inactive
CCOC(=O)c1cc(-c2cccc([N+](=O)[O-])c2)on1 | inconclusive: 2.82 µM [quencher, side channel, full curve]
Cc1nc(N2CCN(Cc3ccccc3)CC2)nc2c1C(=O)CC(C)C2 (configuration not stated) | inactive
NNc1nccc(Nc2ccccc2C(=O)O)n1 | inconclusive: 1.26 µM [fluorescent, side channel, partial curve]
CCc1ccc(/C=N/NC(=O)Cc2ccc(OC)c(OC)c2)s1 | inconclusive: 39.8 µM [quencher, side channel, partial curve]
CC12CCC(c3c1nc1ccccc1[n+]3[O-])C2(C)C (configuration not stated) | inactive
CCc1nnc(NC(=O)CSc2nnc(-c3ccc(NS(=O)(=O)c4ccccc4)cc3)o2)s1 | inconclusive: 126 µM [inhibitor, single point]
COC(=O)N/N=C/c1cc(Br)ccc1O | inactive

SMILES | Potency
CC(=O)c1sc2c(c1OC(=O)c1ccc(Cl)cc1Cl)c(=O)n(-c1ccccc1)c(=S)n2-c1ccccc1 | inconclusive: 14.1 µM [quencher, side channel, partial curve]
CC(C)C(=O)OCC(=O)Nc1ccc(N=Nc2ccccc2)cc1 | inconclusive: 15.8 µM [quencher, side channel, partial curve]
COc1cccc(CNC(=O)COc2cc3c(c4oc(=O)cc(C)c24)CCC(C)(C)O3)c1 | inactive
CCOC(=O)COn1c(=O)c[n+]([O-])c2ccccc21 | inconclusive: 14.1 µM [quencher, side channel, partial curve]
NNC(=O)CNS(=O)(=O)c1ccc([N+](=O)[O-])cc1 | inconclusive: 4.47 µM [quencher, side channel, partial curve]
COCC(C)NC(=O)c1ccc2c(c1)S(=O)(=O)c1ccccc1C2=O (configuration not stated) | inconclusive: 3.16 µM [quencher, side channel, full curve]
CN1CCN(C(=S)c2cn(CCOc3ccccc3F)c3ccccc23)CC1 | inactive
Cc1ccc(N2NC(=O)/C(=C/c3ccc(-c4ccc(Cl)c(C(=O)O)c4)o3)C2=O)cc1C | inactive
CCCCNc1ccc2nsnc2c1[N+](=O)[O-] | inconclusive: 2.82 µM [quencher, side channel, partial curve]
COc1ccc2c(c1OC)C(=O)OC2Nc1nc(-c2ccc([N+](=O)[O-])cc2)cs1 (configuration not stated) | inconclusive: 8.91 µM [quencher, side channel, partial curve]
Cc1cc(C)cc(Nc2ccc(C(=O)O)cc2[N+](=O)[O-])c1 | inconclusive: 17.8 µM [quencher, side channel, partial curve]
O=C(C1CCCN(S(=O)(=O)c2cccc3nonc23)C1)N1CCN(c2ccccc2)CC1 (configuration not stated) | inconclusive: 15.8 µM [quencher, side channel, partial curve]
CCCc1nc2cc(Cl)c([N+](=O)[O-])cc2o1 | inconclusive: 20 µM [quencher, side channel, partial curve]
COc1ccccc1CNCC(O)Cn1c2ccccc2c2ccccc21 (configuration not stated) | inconclusive: 2.24 µM [fluorescent, side channel, single point]
O=C1NCCc2cc3c(cc21)OCO3 | inconclusive: 0.891 µM [quencher, side channel, full curve, poor fit]
O=c1c2cccc3c2c(nn1CN1CCOCC1)-c1ccccc1-3 | inconclusive: 3.55 µM [quencher, side channel, partial curve]
O=c1oc2ccccc2c(NCc2ccccc2)c1[N+](=O)[O-] | inconclusive: 1.58 µM [quencher, side channel, full curve]
CC(CO)(CO)NCc1ccc(-c2ccccc2)cc1 | inconclusive: 0.1 µM [fluorescent, side channel, full curve]
CCOC(=O)c1cc2c(=O)n3ccccc3nc2n(C(C)C)c1=NC(=O)c1ccco1 | inconclusive: 8.91 µM [quencher, side channel, partial curve]
C=CCN=Cc1sc2ccc(OCC)cc2c1O | inconclusive: 15.8 µM [quencher, side channel, partial curve]
Cc1cc(-c2n[nH]c(=S)n2/N=C/c2ccc(Br)s2)n[nH]1 | inconclusive: 17.8 µM [quencher, side channel, partial curve]

SMILES | Potency
COC(=O)C1CCN(C(=O)COc2cc3sc(C)nc3c3sccc23)CC1 | inactive
O=[N+]([O-])c1cc([N+](=O)[O-])c2cccnc2c1O | inconclusive: 6.31 µM [quencher, side channel, full curve]
CN(C)CCCNC(=O)/C(=C\C=C\c1ccccc1)NC(=O)c1ccc([N+](=O)[O-])cc1 | inconclusive: 12.6 µM [quencher, side channel, partial curve]
O=C1c2ccccc2C(=O)N1CSc1nnc(Nc2ccccc2)s1 | inactive
O=[N+]([O-])c1cc([N+](=O)[O-])c2cc3ccccc3nc2c1 | inconclusive: 6.31 µM [quencher, side channel, partial curve]
CCCC(=O)Nc1ccc(-c2csc(NNC(C)=O)n2)cc1 | inconclusive: 31.6 µM [quencher, side channel, single point]
Cc1ccccc1NC(=O)Cn1nc(-c2ccc(Cl)s2)ccc1=O | inconclusive: 28.2 µM [quencher, side channel, single point]
CC(=O)NC(c1ccco1)c1ccc2cccnc2c1O (configuration not stated) | inactive
CN(C)c1ccc(N/C=C/C(=O)C(C)(C)C)cc1 | inconclusive: 28.2 µM [quencher, side channel, partial curve]
COc1ccc(-c2cc(=O)oc3c(C)c(OCC(=O)N(C)C)ccc23)cc1 | inconclusive: 12.6 µM [quencher, side channel, partial curve]
O=c1nc(/C=C/c2ccc(O)c(O)c2)oc2ccccc12 | inconclusive: 28.2 µM [quencher, side channel, single point]
O=C(Nc1cccc(O)c1)c1ccc([N+](=O)[O-])cc1Cl | inconclusive: 14.1 µM [quencher, side channel, partial curve]
CC(=O)c1c(C)[nH]c(C(=O)OCC(=O)NCC(C)C)c1C | inactive
CCN(CC)CCN1C(=O)C(=O)/C(=C(/O)c2c(C)[nH]c(C(=O)OC)c2C)C1c1ccco1 (configuration not stated) | inactive
Cc1ccccc1N=C1c2cc([N+](=O)[O-])ccc2-c2ncccc21 | inconclusive: 7.94 µM [quencher, side channel, partial curve]
Cc1nc(-c2ccccn2)nc(SCC(=O)c2ccccc2)c1Cl | inactive
CCCCN=Cc1sc2ccc(OCC)cc2c1O | inconclusive: 17.8 µM [quencher, side channel, partial curve]
CC(=O)Nc1ccc(Oc2ccc([N+](=O)[O-])cc2Cl)cc1 | inconclusive: 17.8 µM [quencher, partial curve]
COc1cc(CCC(=O)OCC(=O)N2CCc3ccccc32)cc(OC)c1OC | inconclusive: 0.141 µM [quencher, side channel, full curve, poor fit]
COCCNC(=O)/C(C#N)=C/c1cc(C)n(C2CCCCC2)c1C | inconclusive: 25.1 µM [quencher, side channel, partial curve]
